The list shows a part of the results. Sequences were assembled here from the parent chain. Values near 0.05 are background.
B1: TEV protease; numbered along this chain (parent)
chain: MGESLFKGPRDYNPISSSICHLTNESDGHTTSLYGIGFGPFIITNKHLFRRNNGTLVVQSLHGVFKVKDTTTLQQHLVDGRDMIIIRMPKDFPPFPQKLKFREPQREERICLVTTNFQTKSMSSMVSDTSCTFPSGDGIFWKHWIQTKDGQCGSPLVSTRDGFIVGIHSASNFTNTNNYFTSVPKNFMELLTNQEAQQWVSGWRLNADSVLWGGHKVFMVKPEEPFQPVKEATQL

Variants of: B1
Assay: raw area under fraction-flipped curve 0-4 h after induction (AUC4h, not background-subtracted), DNA-recorder readout of cleavage of the substrate (dimensionless); higher = more cleavage of the substrate by the protease variant
Settings: temperature: 34 °C; time window: 0-4 h after rhamnose induction
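Further: Bxb1 expression induced with 0.2% (w/v) L-rhamnose at OD600 near 0.5, cultures sampled hourly, flipped fraction per protease–substrate barcode pair counted by paired-end Illumina sequencing.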

| Variant | area with substrate KNLYFQS | area with substrate LNLYFQS | area with substrate SNLYFQS | area with substrate INLYFQS | area with substrate NNLYFQS | area with substrate RNLYFQS | area with substrate HNLYFQS | area with substrate MNLYFQS | area with substrate PNLYFQS | area with substrate VNLYFQS |
| --- | --- | --- | --- | --- | --- | --- | --- | --- | --- | --- |
| M88C | 0.065 | 0.0602 | 0.0706 |  |  |  |  |  |  |  |
| M88H |  | 0.0786 |  | 0.0387 | 0.027 | 0.0494 |  |  |  |  |
| V64T | 0.0866 | 0.0419 |  | 0.0665 |  |  | 0.0803 | 0.0743 | 0.0695 | 0.0596 |
| D208N | 0.0612 | 0.0685 | 0.0617 |  | 0.0737 |  | 0.0601 |  |  |  |
| D208S | 0.0481 |  |  | 0.0506 | 0.0685 |  | 0.0569 |  | 0.0633 |  |
| T192W |  |  | 0.0636 |  |  |  |  |  |  |  |
| H168A |  |  | 0.047 |  | 0.0696 |  |  |  |  |  |
| H168Y | 0.0625 | 0.0574 | 0.0608 | 0.0601 | 0.0615 |  | 0.0721 | 0.0621 | 0.0604 | 0.0666 |
| G8A | 0.0672 |  | 0.0764 |  |  |  | 0.0665 |  |  | 0.0557 |
| S16H | 0.0577 | 0.0771 | 0.0804 | 0.0526 | 0.0576 | 0.0662 | 0.0631 | 0.0627 | 0.0755 |  |
| T72H | 0.0439 | 0.0675 | 0.0653 | 0.0672 |  |  | 0.0793 | 0.0539 | 0.0653 |  |
| P96L |  |  | 0.0394 |  |  |  | 0.0604 |  | 0.07 |  |
| P96S | 0.0993 | 0.0732 |  | 0.0825 |  |  | 0.0655 | 0.0637 | 0.0476 |  |
| P96Y |  | 0.0634 | 0.0684 |  | 0.0543 |  | 0.065 |  | 0.0748 | 0.0629 |
| A232K |  | 0.0695 | 0.0709 |  |  |  |  |  |  |  |
| A232V |  |  | 0.0792 |  |  |  |  |  |  |  |
| A232W | 0.074 |  | 0.0601 | 0.0621 |  |  |  |  |  |  |
| D128E | 0.0596 | 0.0855 |  |  |  |  | 0.0625 | 0.0907 | 0.0735 | 0.0754 |
| K216D |  |  |  |  |  |  |  |  | 0.0819 |  |
| V200I |  |  |  |  |  |  |  |  | 0.0636 |  |
| V200L |  | 0.0839 | 0.0569 | 0.0716 |  |  |  |  | 0.0406 |  |
| V200A |  |  |  | 0.0569 |  |  | 0.0377 |  | 0.0671 |  |
| C152M | 0.0535 | 0.0693 |  |  |  |  | 0.0509 |  |  |  |
| C152K |  | 0.0342 |  | 0.0531 | 0.0489 | 0.0615 |  |  | 0.0549 |  |

Same assay, conditions: temperature: 34 °C; time window: 0-4 h after rhamnose induction

| Variant | area with substrate YNLYFQS | area with substrate GNLYFQS | area with substrate WNLYFQS | area with substrate TNLYFQS | area with substrate FNLYFQS | area with substrate QNLYFQS | area with substrate DNLYFQS |
| --- | --- | --- | --- | --- | --- | --- | --- |
| V64T | 0.0481 |  |  |  |  |  |  |
| D208N | 0.0718 | 0.0613 | 0.0596 |  |  |  |  |
| D208S |  | 0.0761 |  | 0.0773 |  |  |  |
| H168A |  |  |  |  | 0.0485 |  |  |
| H168Y | 0.05 | 0.0538 | 0.0577 |  | 0.0538 |  |  |
| G8D |  |  |  | 0.0816 |  |  |  |
| G8A |  |  | 0.0579 |  |  |  |  |
| S16H | 0.0731 |  | 0.056 | 0.0676 |  | 0.0805 |  |
| T72H | 0.0759 | 0.0542 | 0.0728 | 0.0609 |  |  |  |
| P96L |  |  | 0.0524 |  | 0.0736 |  |  |
| P96S |  |  | 0.0717 | 0.0787 |  |  |  |
| P96Y |  |  | 0.055 |  |  |  |  |
| A232K |  | 0.0958 |  | 0.0541 | 0.0634 |  | 0.111 |
| A232V |  |  | 0.0566 | 0.0731 |  |  |  |
| A232W | 0.0655 |  |  |  | 0.0782 |  |  |
| D128E |  |  | 0.0725 | 0.068 |  | 0.0712 |  |
| K216D |  |  | 0.0618 |  |  |  |  |
| V200I | 0.0643 |  |  |  |  |  |  |
| V200L | 0.0297 |  | 0.0709 |  |  |  |  |
| V200A |  |  | 0.0629 |  |  |  |  |
| C152M | 0.0482 |  |  | 0.0538 | 0.0611 |  |  |
| C152K | 0.0523 |  | 0.0562 | 0.0524 | 0.0711 | 0.0514 |  |
